# PubChem BioAssay AID485297 (National Center for Advancing Translational Sciences (NCATS), 2010)
# Among all 320,000 compounds or so, about 9,100 (2.8%) were called active. This list was built around the results that the source calls inconclusive (neither active nor inactive); the mix of calls is not that of the screen. Calls come from the whole dose curve; as a rule, active = well fitted activation curve with a large enough effect; inconclusive = small, poorly fitted or top-dose-only effect; inactive = no such curve, though single readings can be large or run the other way. No potency is given beside an inconclusive call; the fits are too rough.
# Assay: qHTS Assay for Rab9 Promoter Activators; note: nearly all actives have a fitted effect of over 60% in size; for activation, negative = inhibition: % of control where 0% means no effect
# Details: Huh7 Rab9 promoter-luciferase reporter, luminescence, 24 h; series mostly up to 9.22 µM; activation, negative = inhibition: at the top concentration
# How it was run: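 Quantitative HTS format; Huh7 Rab9-luciferase reporter cells (1500/well) receive compound 2 h post-plating, incubate 24 h at 37 °C, then get luciferase reagent for 10 min before luminescence reading.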
# Potency is the fitted concentration of half-maximal effect; tags give direction and shape of the fitted curve.
Compound,Potency,"activation, negative = inhibition"
O=C1/C(=C/Nc2ccc3c(c2)OCO3)CCc2ccccc21,active: 0.282 µM,
Cc1ccc(/C=N/NC(=O)c2cccs2)s1,"inconclusive [activator, single point]",
COc1ccc(CNC(=O)C2CCCN(C(=O)Nc3ccccc3OC)C2)cc1 (configuration not stated),,inactive: 3.51%
COc1ccc(-c2nnc(-c3ccccc3O)o2)cc1,"inconclusive [activator, single point]",
COc1ccc2c(c1OC)C(=O)OC2Nc1nc(-c2cc3ccccc3oc2=O)cs1 (configuration not stated),active: 0.447 µM,
O=C(/C=C/c1ccco1)N1CCC(Cc2ccccc2)CC1,"inconclusive [activator, partial curve]",
CCCCn1c(N)c(N(CCOC)C(=O)CSc2nnc(-c3ccncc3)n2CCC)c(=O)[nH]c1=O,,inactive: 1.61%
COc1ccccc1OCC(=O)N/N=C1/C=C(C)CC1,,inactive: 2.19%
COC(=O)C(C(=O)Nc1nc2ccccc2s1)C1CCCC1 (configuration not stated),,inactive: 3.24%
Cc1cccc(-c2nnn(Cc3nnc(NC(=O)c4ccccc4)s3)n2)c1,,inactive: -7.06%
CC(=O)c1c(C)[nH]c(C(=O)OCC(=O)Nc2cc(Cl)ccc2[N+](=O)[O-])c1C,,inactive: -2.36%
CN(C(=O)c1cc2sccc2n1C)C1CCCCC1,active: 3.16 µM,
COc1ccccc1Nc1nc(-c2cccs2)cs1,"inconclusive [activator, single point]",
O=C(N/N=C/c1cccc([N+](=O)[O-])c1)c1cccs1,"inconclusive [activator, single point]",
O=C(NC1CCCCCCC1)c1cccc(Cl)c1,"inconclusive [activator, single point]",
Cc1ccc(-c2nc3ccc(NS(=O)(=O)c4ccccc4)cc3[nH]2)o1,"inconclusive [activator, partial curve]",
O=C(CNC(=O)C1CCCCC1)OCC(=O)c1ccc(Br)cc1,,inactive: 0.111%
COc1ccc(C(=O)Nc2sc(C)c(C)c2CN2CCOCC2)cc1,"inconclusive [activator, partial curve]",
Cc1c(C(=O)OCCOc2ccccc2)[nH]c2c1C(=O)CCC2,"inconclusive [activator, partial curve, poor fit]",
CCn1nc(C(=O)OCC(=O)Nc2nc(-c3ccc(OC)cc3)cs2)c2ccccc2c1=O,"inconclusive [activator, single point]",
O=C(Nc1ccc(-n2ccc(C(F)(F)F)n2)cc1)c1cccs1,active: 3.16 µM,
CC(C)(C)c1ccc(/C=C(\C#N)C(=O)Nc2ccccn2)cc1,,inactive: -2.01%
Cc1ccc(CNC(=O)c2cc(-c3cc(C)cc(C)c3O)n[nH]2)cc1,,inactive: 0.649%
CCCCn1c(N)c(N(CC(C)C)C(=O)c2ccc(S(=O)(=O)N3CCCCC3)cc2)c(=O)[nH]c1=O,,inactive: 0.1%
Cc1cc(N2CCOCC2)nc2ccc(Cl)cc12,"inconclusive [activator, single point]",
NC(=O)c1ccccc1NC(=O)CC12CC3CC(CC(Br)(C3)C1)C2,,inactive: -0.915%

Compound,Potency,"activation, negative = inhibition"
CCN1C(=S)SC(=O)C1=C1C=C(C)OC(C)=C1,"inconclusive [activator, partial curve]",
COC(=O)c1cccc(NC(=O)c2cnccn2)c1,"inconclusive [activator, partial curve]",
Cc1cc(N/C=C/C(=O)c2ccc(Br)cc2)no1,"inconclusive [activator, partial curve]",
CCC1=C/C(=C/N(C)c2ccccc2)C(=O)S1,"inconclusive [activator, partial curve]",
Cn1nnnc1SCC(=O)c1ccc2c(c1)OCCO2,"inconclusive [activator, single point]",
N/C(=N\OC(=O)c1cc(Br)ccc1Cl)c1ccccn1,"inconclusive [activator, single point]",
Cc1cc(C(=O)COC(=O)c2cccnc2Cl)c(C)n1CC1CCCO1 (configuration not stated),"inconclusive [activator, partial curve]",
O=C(Nc1ccc(Cl)cc1F)c1cccc2ccccc12,"inconclusive [activator, partial curve]",
CCc1ccc(C(=O)Nc2ccc3c(c2)n(C)c(=O)n3C)cc1,"inconclusive [activator, single point]",
CCOC(=O)c1sc(=NC(=O)c2ccc(Cl)s2)n(C)c1C,"inconclusive [activator, single point]",
COc1ccccc1NC(=O)COc1ccc(CO)cc1Cl,"inconclusive [activator, single point]",
Cc1cc(C(=O)O)c(C)n1-c1ccccc1,,inactive: -1.02%
Cc1ccc([N+](=O)[O-])cc1NC(=O)c1ccc(C(C)(C)C)cc1,,inactive: 0.0187%
Clc1ccc(-c2nc3ccncc3[nH]2)cc1,"inconclusive [activator, partial curve]",
CCc1ccc(OCc2ccc(C(=O)OC)o2)cc1,"inconclusive [activator, full curve]",
COc1ccc(-c2nc3ccc(C(=O)NCC(OC)OC)cc3nc2-c2ccc(OC)c(OC)c2)cc1OC,,inactive: 4.23%
O=C(Nc1ccc([N+](=O)[O-])cc1)OCCc1ccccn1,active: 3.55 µM,
CCn1c(SCc2nc3ccccc3[nH]2)nnc1-c1cccnc1,,inactive: 5.11%
Cc1cccc(NS(=O)(=O)c2ccc3c(c2)NC(=O)CO3)c1C,,inactive: -0.716%
N#Cc1c(NC(=O)/C=C/c2ccco2)sc2c1CCCC2,"inconclusive [activator, partial curve]",
Cc1ccc(OCc2cc(C(=O)N3CCCCCCC3)no2)cc1C,"inconclusive [activator, partial curve]",
O=C(NCCc1ccccc1)c1ccccc1NC(=O)C1CCCCC1C(=O)O (configuration not stated),active: 2 µM,
Cc1ccnc(NC(=O)c2ccc(N3C(=O)CCC3=O)cc2)c1,"inconclusive [activator, partial curve]",
Nc1nc(N)nc(-c2ccccn2)n1,,inactive: -2.58%
Cc1nc2c(sc3nc4c(cc32)COC(C)(C)C4)c(=O)n1Cc1ccccc1,"inconclusive [activator, partial curve]",
Cc1ccc(Nc2nc3c(c(=O)[nH]2)CCCC3)cc1,"inconclusive [activator, single point]",

Compound,Potency,"activation, negative = inhibition"
CC(=O)Nc1ccc(N/C=C/C(=O)c2ccc(C)o2)cc1,"inconclusive [activator, single point]",
NC(=O)c1ccsc1NC(=O)COC(=O)c1c(F)cccc1Cl,"inconclusive [activator, single point]",
Cc1c(C(=O)NC2CC(=O)N(c3ccc4c(c3)OCCO4)C2)cccc1[N+](=O)[O-] (configuration not stated),,inactive: -3.46%
CC(C)OCCCNC(=S)N1CCC(C(=O)c2ccc3c(c2)OCCO3)CC1,,inactive: -2.99%
CN1CCN(C2=C(NS(=O)(=O)c3cccs3)C(=O)c3ccccc3C2=O)CC1,"inconclusive [activator, partial curve]",
O=C(Nc1ccc2c(c1)OCCO2)c1cnc2n(c1=O)CCS2,active: 2 µM,
Cc1cc(C)cc(NC(=O)COC(=O)c2n[nH]c3ccccc23)c1,"inconclusive [activator, partial curve]",
Cn1c(=S)[nH]c2sc3c(c2c1=O)CCC(C(C)(C)C)C3 (configuration not stated),"inconclusive [activator, partial curve]",
O=C(CCc1nnc(CCCc2ccccc2)o1)NCCCC1CCCC1,"inconclusive [activator, partial curve]",
COc1ccc(OCc2cc(/C=N\NC(=O)c3ccccc3)ccc2OC)cc1,"inconclusive [activator, partial curve]",
COc1ccc(S(=O)(=O)N2CCOC2CNC(=O)C(=O)NCCc2ccccc2)cc1 (configuration not stated),,inactive: -6.86%
O=C(N/N=C/c1ccc(F)cc1)c1cccc(NC(=O)c2ccc(F)cc2)c1,"inconclusive [activator, partial curve]",
CCOc1cccc(C(=O)Nc2ccncc2)c1,,inactive: -14%
COC(=O)c1sc2nc3c(cc2c1N)C(=O)CC(C)(C)C3,"inconclusive [activator, partial curve]",
Cc1cc(NC(=O)/C=C/c2ccc(Cl)cc2)no1,"inconclusive [activator, single point]",
CCN(CC)C(=O)CSc1ncnc2sc(-c3ccccc3)cc12,active: 2.82 µM,
CCCCN1C=CC(=C2N=c3cccc([N+](=O)[O-])c3=N2)C=C1,"inconclusive [activator, full curve]",
COc1ccc(SCCN2CC[C@@H](C)CCC2=O)cc1,,inactive: 17.9%
Cc1cc(O)c(/C=N/Nc2ccc(F)cc2)c(=O)o1,,inactive: -5.29%
Cc1ccc(NC(=O)c2ccc(Cl)nc2)cc1,"inconclusive [activator, partial curve, poor fit]",
O=C(CSc1nnc(-c2cccc(F)c2)o1)N1CCCC1,"inconclusive [activator, partial curve]",
O=C(O)c1ccc(Nc2nc(-c3ccccc3)cs2)cc1,active: 0.398 µM,
Cc1nc(-c2ccccc2)nc2[nH]c(=O)n(-c3ccccc3)c(=O)c12,"inconclusive [activator, partial curve]",
CN(Cc1ccccc1)C(=O)C(C(=O)c1ccc(F)cc1)n1cc(Cl)ccc1=O (configuration not stated),"inconclusive [activator, single point]",
COCCN(Cc1ccccc1)C(=O)c1cccc(S(=O)(=O)N2CCN(c3ccccc3)CC2)c1,,inactive: 0.109%
